Results are given in words; binding and its absence hold for the method and conditions named. For some assays here: In cells and extracts the contact can be indirect. Some binding calls cover weakened binding; strength is not graded here. For some assays here: Where a sequence is shown, tags or fusion partners need not be part of it.
Tests used:
[1] = molecular target: JARID1A (mouse (endogenous in MEL)) (UniProt Q3UXZ9); test: co-IP; nuclear extracts of undifferentiated MEL cells, endogenous proteins; IP with antibodies against JARID1A or against the components of the pentameric complex on protein G Dynabeads, overnight at 4°C, 150 mM NaCl, 0.3% NP-40; immunoblot
[2] = molecular target: SCL(180-253)/E47(535-613) bHLH (human) (UniProt P17542+P15923); test: AUC; sedimentation velocity, 20°C, proteins at 0.04 mM, equimolar mixtures, 50 mM HEPES pH 8, 200 mM NaCl, 1 mM DTT; apparent sedimentation coefficients, c(s) and c(s,f/f0) analysis; both purified
[3] = molecular target: GATA1NFCF (201-313) (human) (UniProt P15976); test: as above

Protein sequences, listed by entry. Tags and fused reporters are not part of them. Lines headed by an entry give the natural chain unless they say otherwise; changes in a name come on top. Residues count along the entry.
UniProt P17542: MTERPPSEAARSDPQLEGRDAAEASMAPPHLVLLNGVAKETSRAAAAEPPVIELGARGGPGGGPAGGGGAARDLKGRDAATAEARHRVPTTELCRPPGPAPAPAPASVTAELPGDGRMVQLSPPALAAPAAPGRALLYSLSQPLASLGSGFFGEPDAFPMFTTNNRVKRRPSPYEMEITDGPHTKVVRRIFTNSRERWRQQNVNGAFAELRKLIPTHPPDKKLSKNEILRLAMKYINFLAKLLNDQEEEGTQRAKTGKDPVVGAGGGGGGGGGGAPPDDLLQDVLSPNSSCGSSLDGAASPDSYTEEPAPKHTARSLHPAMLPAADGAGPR
UniProt P15923: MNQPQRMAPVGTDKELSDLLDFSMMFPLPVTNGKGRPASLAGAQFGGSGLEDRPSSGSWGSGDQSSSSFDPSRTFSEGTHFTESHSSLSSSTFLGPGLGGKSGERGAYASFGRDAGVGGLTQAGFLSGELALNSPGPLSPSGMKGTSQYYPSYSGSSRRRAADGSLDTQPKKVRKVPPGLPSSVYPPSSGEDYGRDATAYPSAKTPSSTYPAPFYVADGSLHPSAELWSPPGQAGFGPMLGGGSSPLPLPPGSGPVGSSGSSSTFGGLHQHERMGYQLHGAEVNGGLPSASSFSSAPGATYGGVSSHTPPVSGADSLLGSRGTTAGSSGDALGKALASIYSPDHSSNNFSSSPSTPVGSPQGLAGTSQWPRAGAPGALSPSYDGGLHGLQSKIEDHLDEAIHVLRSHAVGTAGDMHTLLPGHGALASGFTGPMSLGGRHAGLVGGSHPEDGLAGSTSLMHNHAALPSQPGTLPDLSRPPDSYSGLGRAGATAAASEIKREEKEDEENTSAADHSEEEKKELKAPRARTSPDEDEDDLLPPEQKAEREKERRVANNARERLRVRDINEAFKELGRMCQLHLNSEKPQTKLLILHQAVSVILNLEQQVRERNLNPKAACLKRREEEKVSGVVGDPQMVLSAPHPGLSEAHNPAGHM
UniProt P15976, residues 201-313: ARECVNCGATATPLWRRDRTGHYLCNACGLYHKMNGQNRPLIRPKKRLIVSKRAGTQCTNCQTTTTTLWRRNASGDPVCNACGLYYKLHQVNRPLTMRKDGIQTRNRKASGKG
UniProt P22091: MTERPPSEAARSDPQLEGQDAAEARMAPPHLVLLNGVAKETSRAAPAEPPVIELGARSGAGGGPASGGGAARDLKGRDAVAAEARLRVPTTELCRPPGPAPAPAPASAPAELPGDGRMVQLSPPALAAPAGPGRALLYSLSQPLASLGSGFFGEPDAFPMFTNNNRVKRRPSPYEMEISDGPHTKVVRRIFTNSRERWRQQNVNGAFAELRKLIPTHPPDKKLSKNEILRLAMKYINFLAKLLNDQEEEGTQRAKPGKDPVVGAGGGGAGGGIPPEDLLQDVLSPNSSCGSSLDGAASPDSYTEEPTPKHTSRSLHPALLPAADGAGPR
UniProt P17679: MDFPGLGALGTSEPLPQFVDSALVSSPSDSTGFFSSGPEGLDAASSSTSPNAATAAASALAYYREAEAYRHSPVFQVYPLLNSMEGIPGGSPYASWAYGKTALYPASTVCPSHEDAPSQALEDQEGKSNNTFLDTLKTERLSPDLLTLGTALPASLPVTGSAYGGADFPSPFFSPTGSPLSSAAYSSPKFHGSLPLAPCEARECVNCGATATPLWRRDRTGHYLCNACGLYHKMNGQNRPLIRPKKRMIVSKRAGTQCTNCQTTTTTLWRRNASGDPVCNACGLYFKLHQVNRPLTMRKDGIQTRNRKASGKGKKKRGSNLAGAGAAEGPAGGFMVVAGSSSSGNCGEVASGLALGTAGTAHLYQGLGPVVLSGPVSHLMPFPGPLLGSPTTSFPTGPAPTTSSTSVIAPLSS

Molecule: SCL (from UniProt P22091 1-329)
- binding [1]: binds

Molecule: GATA1 (from UniProt P17679 1-413)
- binding [1]: binds

B1: GST PHD2 (1156-1222) of JARID1A (domain or fragment, UniProt Q3UXZ9 1156-1222)
chain: ERIEEVKFCICRKTASGFMLQCELCKDWFHNSCVPLPKSSSQKKGSSWQAKDVKFLCPLCMRSRRPR
- binding [2]: no binding (tested: 0.04 mM)
- binding [3]: binds

B2: His-tag PHD2 domain of JARID1A (domain or fragment, UniProt Q3UXZ9 1156-1222)
chain: B1 chain
- binding [3]: binds

B3: GST PHD3 (1608-1659) of JARID1A (domain or fragment, UniProt Q3UXZ9 1608-1659)
chain: AVCAAQNCQRPCKDKVDWVQCDGGCDEWFHQVCVGVSAEMAENEDYICINCA
- binding [2]: no binding (tested: 0.04 mM)
- binding [3]: no binding (tested: 0.04 mM)

B4: GST PHD1 (282-360) of JARID1A (domain or fragment, UniProt Q3UXZ9 282-360)
chain: RKGTLSVNFVDLYVCMFCGRGNNEDKLLLCDGCDDSYHTFCLLPPLPDVPKGDWRCPKCVAEECNKPREAFGFEQAVRE
- binding [3]: no binding (tested: 0.04 mM)

Reference: PMC7029945
